Test results taken from PubChem BioAssay AID1671193 (National Center for Advancing Translational Sciences (NCATS), 2021).
“And” between values parts separate entries of the source, which are not always exact repeats. Equal entries are not always repeated. In all, about 150,000 compounds went through this assay and about 180 (0.12%) were called active. Inconclusive means that the source gave no clear call. Such entries were picked first, then a sample of the others. Calls follow the shape of the dose curve; as a rule, active = well fitted cell-killing curve with a large enough effect; inconclusive = small, poorly fitted or top-dose-only effect, or effect the other way; inactive = flat fitted curve, though single readings scatter. Potencies beside an inconclusive call are fits to weak or partial responses and may not hold up.

Experiment: GF-AFC viability counterscreen for inhibitors of alpha-synuclein gene (SNCA) expression; also: nearly all actives have a fitted effect of over 30% in size;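 as to activity change, negative = cytotoxicity: 0% = DMSO-treated cells and -100% = medium-only wells without cells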
Conditions: HEK-293-SNCA-luc viability, GF-AFC fluorescence, 24 h; activity change, negative = cytotoxicity: at 57.1 µM (top of the series) unless noted
Method in brief: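 HEK-293-SNCA-luc cells (1500/well) plated 24 h, then exposed 24 h to a dilution series; GF-AFC added 30 min at 37C, fluorescence 405/540 nm; normalised to medium-only and DMSO wells, Hill fit.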
Potency is read from the fitted curve at half-maximal effect; tags tell the direction and shape of the fitted curve.

Compound | Potency | activity change, negative = cytotoxicity
CCOc1ccc2c(c1)c(=O)c(C(=O)c1ccc3c(c1)OCO3)cn2Cc1cccc(F)c1 | inconclusive: 3.98 µM [cytotoxic, full curve, poor fit] | 
Cc1cnc(-c2ccccc2)n1C1CCN(S(C)(=O)=O)CC1 | inconclusive: 39.8 µM [cytotoxic, single point] | 
COCCn1ccc2c(C3=CCOCC3)nc(-c3cccc(N[S+](C)(=O)[O-])c3)cc21 | inactive | 
COc1ccccc1C(=O)Nc1cc(-c2ccccn2)nn1-c1ccccc1 | inactive | 
Cc1ccc(-n2ncc3c(NC4CCCC4)ncnc32)cc1 | inactive | 
Cn1c(=O)c2nc3ccc(NC(=O)C(F)(F)F)cc3nc2n(C)c1=O | inconclusive: 25.1 µM [rising, single point] | 
CCC(C)n1c(=N)c(C(=O)NC2CCCC2)cc2c(=O)n3ccccc3nc21 (centres undefined) | inconclusive: 2 µM [rising, full curve, poor fit] | 
Cc1ccc(C(=O)N2CCC(n3cc(-c4nc(C(C)C)no4)nn3)CC2)cc1F | inactive | 
Cc1ccc(NC(=O)CSc2cn(CC(=O)N3CCOCC3)c3ccccc23)cc1Cl | inconclusive: 20 µM [cytotoxic, single point] | 
CN(Cc1cccn1C)C(=O)c1cccc(Cl)c1 | inactive | 
COc1ccc(C(=O)N2CCC3(CCN(C(=O)Nc4ccccc4)CC3)CC2)cc1 | inconclusive: 14.1 µM [cytotoxic, partial curve, poor fit] | 
Cc1cccc2c(=O)cc(CSc3ccccc3NC(=O)c3cccc(Br)c3)[nH]c12 | inconclusive: 11.2 µM [cytotoxic, partial curve, poor fit] | 
COc1cc(O)ccc1-c1nc2cc(C)ccn2c1Nc1ccccc1C | inconclusive: 14.1 µM [cytotoxic, partial curve, poor fit] | 
CCOC(=O)C1CCCN(C(=O)Cn2ncc3c4ccccc4n(C)c3c2=O)C1 (centres undefined) | inconclusive: 3.98 µM [rising, partial curve, poor fit] | 
O=C(C[C@@H]1CCNC[C@@H]1Cc1cc(CN2CCCCC2)on1)NCc1cccs1 | inactive | 
Cc1ccc(C)c(-c2cc3c(=O)n(CCNC(=O)c4cccc(N(C)C)c4)ccn3n2)c1 | inconclusive: 39.8 µM [cytotoxic, single point] | 
O=C(C[C@@H]1CCNC[C@@H]1Cc1cc(CN2CCOCC2)on1)NCCN1CCOCC1 | inactive | 
CN1C(=O)C(c2ccccc2)CC12CCN(Cc1ccc(C#N)cc1)CC2 (centres undefined) | inactive | 
CCc1ccc(S(=O)(=O)N2CCN(c3ccc(Cl)c(Cl)c3)CC2)cc1 | inconclusive: 31.6 µM [rising, single point] | 
COc1ccc(-n2c(=O)c(-c3cccs3)nc3cncnc32)cc1 | inconclusive: 6.31 µM [cytotoxic, single point] | 
O=C1N2CCCC2CN1C1CCN(Cc2ccc(OC(F)(F)F)cc2)CC1 (centres undefined) | inactive | 
Cc1ccc(C(=O)NC2CCN(c3cc(C(F)(F)F)nc(C)n3)CC2)cc1 | inactive | 

Compound | Potency | activity change, negative = cytotoxicity
CC(C)c1cccc(NC(=O)c2ccc3c(c2)N(C)C2CCCCN2C3=O)c1 (centres undefined) |  | inactive: 13.2% [at 12.5 µM]
CCNc1nccc(N2CCC(CC(=O)NCCCOC)CC2)n1 | inconclusive: 28.2 µM [cytotoxic, partial curve, poor fit] | 
NC(=NCc1ccccc1)NC(=O)c1nc(Cl)c(N)nc1N | inconclusive: 48.2 µM [cytotoxic, single point] | 
COc1cccc(CN2CCCCCCNC(=O)[C@@H]3C[C@@H](C(=O)N4CCc5ccccc5C4)C[C@@H]32)c1 | inactive | 
O=C(CCS(=O)(=O)c1nc(-c2ccc3c(c2)OCO3)cc(C(F)(F)F)n1)Nc1ccc(F)c(Cl)c1 | inconclusive: 28.2 µM [cytotoxic, single point] | 
CNC(=O)CCn1ncc2cc(OC3CCc4cccc(-c5ccc(F)cc5)c43)ccc21 (centres undefined) | inconclusive: 28.2 µM [cytotoxic, single point] | 
CCOc1ccc(C(=O)c2cn(Cc3ccc(OC)cc3)c3cc(OC)c(OC)cc3c2=O)cc1 | inconclusive: 15.8 µM [cytotoxic, partial curve, poor fit] | 
COC[C@@H]1CN(c2cnccn2)C[C@H]1C(=O)Nc1ccc(OC)nc1 | inactive | 
CN(CC(=O)N1CCCn2nc(-c3cccc(C(F)(F)F)c3)cc2C1)S(=O)(=O)c1ccc2c(c1)oc(=O)n2C | inactive | 
CN(C(=O)CSc1nc2ccc(NC(=O)CCc3ccccc3)cc2s1)c1ccccc1 | inconclusive: 28.2 µM [cytotoxic, single point] | 
CN1CC[C@@]2(CCCN(S(=O)(=O)c3ccccc3)C2)C1 | inconclusive: 39.8 µM [cytotoxic, single point] | 
COc1ccc(C(=O)N2CC(n3cc(COCC4CC4)nn3)C2)c(OC)n1 | inactive | 
CCCNC(=O)C1COC2(CCN(C(=O)CC(C)(C)C)CC2)N1C(=O)c1cccc(OC)c1 (centres undefined) | inconclusive: 5.62 µM [rising, partial curve, poor fit] | 
COc1ccc(C(=O)N2CCC3(CC2)CN(c2ccccn2)C3)cc1 | inconclusive: 25.1 µM [cytotoxic, single point] | 
N[C@@H](CC(=O)N1CCn2c(nnc2C(F)(F)F)C1)Cc1[nH]nc2c(F)c(F)ccc12 | inconclusive: 37.7 µM [cytotoxic, single point] | 
Cn1c(C(=O)NCCc2ccccc2)cc2c(=O)n3ccccc3nc21 | inconclusive: 17.8 µM [rising, partial curve, poor fit] | 
COc1ccc(-c2cc(N3CCCC(NC(=O)c4cccc(C(F)(F)F)c4)C3)n[nH]2)cc1 (centres undefined) | inconclusive: 44.7 µM [cytotoxic, single point] | 
O=C(c1ccccc1)N1CCC2(CC1)SCC(=O)N2c1ccccc1 | inactive | 
O=C(CCn1ccn2nc3c(c2c1=O)CCCC3)NCc1cccs1 | inconclusive: 10 µM [cytotoxic, partial curve, poor fit] | 
COc1ccc(C(=O)NC[C@H]2Cn3c(-c4ccc(F)cc4)cnc3CO2)cc1 | inconclusive: 63.1 µM [cytotoxic, partial curve, poor fit] | 
Cc1cccc2nc(C(=O)N3CCC4(CCNCC4)CC3)cn12 | inconclusive: 12.6 µM [cytotoxic, partial curve, poor fit] | 
COCC(=O)N1CCC2(CC1)CN(C(c1ccccc1)c1ccccc1)C2 | inconclusive: 7.08 µM [cytotoxic, single point] | 

Compound | Potency | activity change, negative = cytotoxicity
COc1ccc(CNC(=O)NC2CCc3nnc(C4CC4)n3CC2)cc1 (centres undefined) | inconclusive: 10 µM [rising, partial curve, poor fit] | 
CC(C)(C)C(=O)N1CCN(c2ccnc3ccnn23)CC1 | inactive | 
Cc1ccc(S(=O)(=O)N2CCC(Oc3ncccc3C(=O)N3CCOCC3)C2)cc1C (centres undefined) | inactive | 
C=C1C(=O)O[C@@H]2/C=C(\C)CC/C=C(\C)CC[C@@H]12 | inconclusive: 37.7 µM [cytotoxic, partial curve, poor fit] | 
COCCCNC(=O)c1nc2sccn2c1-c1ccccc1 | inactive | 
Cc1ccc(CNC(=O)C2CCCN(c3cnn(C)c(=O)c3)C2)cc1 (centres undefined) | inconclusive: 3.55 µM [cytotoxic, single point] | 
COC(=O)C1C(c2ccc(O)cc2)C(C(=O)OC)C1c1ccc(O)cc1 (centres undefined) | inconclusive: 26.1 µM [cytotoxic, single point] | 
O=C(NCc1nnc2c(-c3nc(C4CC4)no3)cccn12)c1ccc2ccccc2n1 | inconclusive: 15.8 µM [cytotoxic, single point] | 
COCCN1CCCCCC(O)c2cc(C(=O)NCCCc3ccccc3)ccc21 (centres undefined) | inactive | 
Cc1cc(Cl)ccc1-n1nc(C)c([C@@H]2C=C[C@@H](NC(=O)CCC(=O)O)C2)c1C | inactive | 
Cn1c(=O)c2c(-c3ccccc3Cl)n(-c3cc(Cl)ccc3O)cc2n(C)c1=O | inconclusive: 39.8 µM [cytotoxic, single point] | 
Cc1ccc(C(=O)CC2(O)C(=O)N(CCc3ccccc3)c3ccc(Cl)cc32)cc1 (centres undefined) | inconclusive: 39.8 µM [cytotoxic, single point] | 
CCC(=O)N1CCN(c2ccc(-n3c(=O)ccc4cnc5ccc(-c6cnc7ccccc7c6)cc5c43)cc2C(F)(F)F)CC1 | inconclusive: 19.2 nM [cytotoxic, full curve, poor fit] and inconclusive: 61.2 nM [cytotoxic, full curve, poor fit] | 
CCc1c(-c2ccccc2)nc2ccccc2c1C(=O)NCCc1ccccc1 | inconclusive: 31.6 µM [cytotoxic, single point] | 
CC(=O)Nc1ccc(C2Sc3ccccc3NC3=C2C(=O)c2ccccc23)cc1 (centres undefined) | inconclusive: 25.1 µM [cytotoxic, partial curve] | 
COc1ccc(-c2nc(-c3c(C)noc3C)cc3c2cc(-c2ccccc2)n3C)cn1 | inconclusive: 35.5 µM [cytotoxic, partial curve, poor fit] | 
COC(=O)c1c(NC(C)=O)c2cc(NC(C)CC(C)(C)O)cnc2n1CCc1ccc(OC)cc1 (centres undefined) | inconclusive: 25.1 µM [rising, single point] | 
CC1(C(=O)NC2CCOCC2)CN(Cc2ccccc2)Cc2ccc(Nc3ccccc3)nc21 (centres undefined) | inconclusive: 39.8 µM [cytotoxic, single point] | 
O=C(C1CCN(Cc2ccccc2-c2ccccc2F)CC1)N1CCCC1 | inconclusive: 31.6 µM [cytotoxic, single point] | 
CCN(CCOc1ccc(F)cc1)C(=O)c1cnc(NC(C)C)nc1 | inactive | 
